Source: a melting point compilation (Tetko et al.; mined from patent text by program, amines drawn as free bases though some values may be those of a salt)

melting point: 105 to 106 °C
SMILES: CCOC(=O)N1CCN(c2nccc(Oc3ccc(NC(=O)c4cc(F)cc(N5CCCCC5)c4)c4ccccc34)n2)CC1
